According to patent EP4431525A1 (Anaveon AG, dated 2024):

T1: His-tagged recombinant CD25 (UniProt P01589 22-213, limits assumed)
T1 construct: also called IL-2R alpha chain
T1 sequence (looked up): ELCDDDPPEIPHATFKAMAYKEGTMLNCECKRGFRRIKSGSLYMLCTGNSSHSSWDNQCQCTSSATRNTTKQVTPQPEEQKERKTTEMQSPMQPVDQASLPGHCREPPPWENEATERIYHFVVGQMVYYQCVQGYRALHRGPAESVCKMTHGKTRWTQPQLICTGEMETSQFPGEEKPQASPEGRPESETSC

T2: IL-2R on murine splenocytes (NK cells, CD8 T cells, Treg cells) (mouse, UniProt P01590 22-268; P16297 27-539; P34902 23-369)
T2 sequence (looked up) 1: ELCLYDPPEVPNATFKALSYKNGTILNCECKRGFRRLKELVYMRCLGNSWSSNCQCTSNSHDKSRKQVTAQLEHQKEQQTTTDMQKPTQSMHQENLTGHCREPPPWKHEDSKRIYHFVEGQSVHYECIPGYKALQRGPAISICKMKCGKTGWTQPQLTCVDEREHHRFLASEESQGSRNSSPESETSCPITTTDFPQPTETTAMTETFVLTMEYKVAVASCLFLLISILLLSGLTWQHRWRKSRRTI
T2 sequence (looked up) 2: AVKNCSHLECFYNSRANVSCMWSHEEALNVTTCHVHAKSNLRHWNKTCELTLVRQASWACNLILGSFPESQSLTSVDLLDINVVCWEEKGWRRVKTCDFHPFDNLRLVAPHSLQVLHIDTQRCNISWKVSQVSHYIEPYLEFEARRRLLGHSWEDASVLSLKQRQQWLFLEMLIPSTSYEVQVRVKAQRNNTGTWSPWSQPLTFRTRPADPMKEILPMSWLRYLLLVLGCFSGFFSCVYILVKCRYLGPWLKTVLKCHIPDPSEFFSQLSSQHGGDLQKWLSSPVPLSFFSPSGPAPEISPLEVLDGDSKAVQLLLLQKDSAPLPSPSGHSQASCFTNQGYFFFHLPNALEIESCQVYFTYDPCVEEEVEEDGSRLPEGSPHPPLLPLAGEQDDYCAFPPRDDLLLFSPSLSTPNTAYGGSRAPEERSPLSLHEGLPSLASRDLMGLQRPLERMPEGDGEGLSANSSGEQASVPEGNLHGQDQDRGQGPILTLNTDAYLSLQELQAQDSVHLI
T2 sequence (looked up) 3: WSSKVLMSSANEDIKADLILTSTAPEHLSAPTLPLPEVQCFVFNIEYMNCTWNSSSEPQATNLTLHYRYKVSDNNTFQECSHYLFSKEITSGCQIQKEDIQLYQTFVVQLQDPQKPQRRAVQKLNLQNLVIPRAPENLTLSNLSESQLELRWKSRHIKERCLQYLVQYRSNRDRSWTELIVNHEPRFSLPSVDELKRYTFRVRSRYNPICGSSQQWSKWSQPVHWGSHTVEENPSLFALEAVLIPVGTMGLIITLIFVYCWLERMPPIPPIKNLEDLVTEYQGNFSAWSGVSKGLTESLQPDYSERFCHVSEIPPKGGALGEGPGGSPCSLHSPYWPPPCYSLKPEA

T3: CD122/CD132 complex (His-tagged, Acro Biosystem, Cat # ILG-H5283) (UniProt P14784 27-239; P31785 23-262, limits assumed)
T3 construct: also called dimeric IL-2 receptor
T3 sequence (looked up) 1: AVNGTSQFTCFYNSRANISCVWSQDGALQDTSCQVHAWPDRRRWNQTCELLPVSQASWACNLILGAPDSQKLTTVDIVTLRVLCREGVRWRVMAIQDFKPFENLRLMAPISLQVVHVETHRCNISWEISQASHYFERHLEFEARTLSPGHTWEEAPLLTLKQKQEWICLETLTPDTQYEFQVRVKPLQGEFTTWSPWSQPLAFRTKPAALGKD
T3 sequence (looked up) 2: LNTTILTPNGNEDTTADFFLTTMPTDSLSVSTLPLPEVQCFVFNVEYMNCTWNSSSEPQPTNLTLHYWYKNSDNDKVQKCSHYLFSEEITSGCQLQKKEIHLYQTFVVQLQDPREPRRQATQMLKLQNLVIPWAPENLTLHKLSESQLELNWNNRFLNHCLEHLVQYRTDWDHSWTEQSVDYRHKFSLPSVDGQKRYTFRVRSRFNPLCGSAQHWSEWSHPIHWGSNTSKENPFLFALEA


Legend:
[1] = target: T1, His-tagged recombinant CD25; experiment: SPR, His-CD25 captured
[2] = target: T2, IL-2R on murine splenocytes (NK cells, …); experiment: cell-based or functional assay
[3] = target: T2, IL-2R on murine splenocytes (NK cells, …); experiment: cell-based or functional assay; remark: listed apart in the source
[4] = target: T3, CD122/CD132 complex (His-tagged, Acro …); experiment: SPR, CD122/CD132 captured on NTA chip

Row | Kd [1] | EC50 CD8 cells (pSTAT5, mouse splenocytes) [2] | EC50 Treg cells (pSTAT5, mouse splenocytes) [2] | EC50 pSTAT5 on CD8 cells (mouse splenocytes) [3] | EC50 pSTAT5 on NK cells (mouse splenocytes) [3] | EC50 pSTAT5 on Treg cells (mouse splenocytes) [3] | Kd [4] | Binder
1 | 0.2 nM | – | – | – | – | – | – | GLK754 (other, Antibody C, IL-2CP in CDR-L1, linkers 13/14 AA) heavy: EVQLVQSGAEVKKPGESLKISCKGSGYSFTNFYIHWVRQAPGQRLEWMGSIYPNYGDTAYNQKFKDRFVFSLDTSVSTAYLQISSLKAEDTAVYYCARGYSYAMDYWGQGTTVTVSSASTKGPSVFPLAPSSKSTSGGTAALGCLVKDYFPEPVTVSWNSGALTSGVHTFPAVLQSSGLYSLSSVVTVPSSSLGTQTYICNVNHKPSNTKVDKRV[letters of human IgG1 Fc with changes left out] light: DIQMTQSPSSVSASVGDRVTITCSASQGISGGGGGSGGGGSGGGNFHLRPRDLISNINVIVLELKGSETTFMCEYADETATIVEFLNRWITFSQSIISTLTPTSSSTKKTQLQLEHLLLDLQMILNGINNYKNPKLTRMLTFKFYMPKKATELKHLQCLEEELKPLEEVLNLAQSKGGGGSGGGGSGGGGDLNWYQQKPGKAPKLLIYHTSSLHSGVPSRFSGSGSGTDFTLTISSLQPEDFATYYCQYYSKDLLTFGGGTKLEIKRTVAAPSVFIFPPSDEQLKSGTASVVCLLNNFYPREAKVQWKVDNALQSGNSQESVTEQDSKDSTYSLSSTLTLSKADYEKHKVYACEVTHQGLSSPVTKSFNRGECRTVAAPSVFIFPPSDEQLKSGTASVVCLLNNFYPREAKVQWKVDNALQSGNSQESVTEQDSKDSTYSLSSTLTLSKADYEKHKVYACEVTHQGLSSPVTKSFNRGEC
2 | – | 4.1 nM | < 0.016 nM | 11.9 nM | 2.51 nM | < 0.02 nM | 0.42 nM | Proleukin (aldesleukin) (ligand) not shown
